Experimental data reported in article PMC11995724, “Antibiotic target discovery by integrated phenotypic and activity-based profiling of electrophilic fragments” (Cell chemical biology, 2025).
Screen size: about 3,200 compounds; about 75 (2%) showed an effect of 50% or more. The list shows a part of the results.

test system: T1, S. aureus MSSA476; parameters: species or system S. aureus MSSA476 (TSB) or V. cholerae SAD30 (LB); 384-well bacterial growth screen at 25 uM, OD600 relative to DMSO control; details: relative growth, OD600, TSB; 25 µM; inhibitor
T1 construct: MSSA476

Row | SMILES | % of control remaining [%]
1 | Cc1ccc(S(=O)(=O)N2CCCCC2)cc1NC(=O)CCl [4-L06, 2-chloro-N-[2-methyl-5-(piperidine-1-sulfonyl)phenyl]acetamide] | 99.8571
2 | CC(Cl)C(=O)NCC1(C2CC2)CCC1 (centres unmarked) [7-A06, 2-chloro-N-[(1-cyclopropylcyclobutyl)methyl]propanamide] | 94.8195
3 | Cn1cc(S(=O)(=O)N2CCOCC2)cc1C(=O)NC(=O)CCl [4-P20, N-(2-chloroacetyl)-1-methyl-4-(morpholine-4-sulfonyl)-1H-pyrrole-2-carboxamide] | 92.2344
4 | CC(Cl)C(=O)N1c2ccccc2NC(=O)C1(C)C (centres unmarked) [4-C08, 4-(2-chloropropanoyl)-3,3-dimethyl-1,2,3,4-tetrahydroquinoxalin-2-one] | 117.77
5 | O=C(CCl)Nc1oncc1-c1ccccc1 [6-I20, 2-chloro-N-(4-phenyl-1,2-oxazol-5-yl)acetamide] | 96.2927
6 | CC(Cl)C(=O)NC(C)c1ccc2c(c1)CCCC2 (centres unmarked) [6-A07, 2-chloro-N-[1-(5,6,7,8-tetrahydronaphthalen-2-yl)ethyl]propanamide] | 81.6098
7 | N#CC(=Cc1cccc(Cl)c1)C(=O)Nc1ccccc1C(F)(F)F [8-J13, 3-(3-chlorophenyl)-2-cyano-N-[2-(trifluoromethyl)phenyl]prop-2-enamide] | 131.12
8 | CC(Cl)C(=O)N1CC(OCc2cccc3ccccc23)C1 (centres unmarked) [7-I03, 2-chloro-1-{3-[(naphthalen-1-yl)methoxy]azetidin-1-yl}propan-1-one] | 82.2606
9 | C=CC(=O)N1CCC(C(=O)N(C)CCn2cccn2)CC1 [2-J12, N-methyl-1-(prop-2-enoyl)-N-[2-(1H-pyrazol-1-yl)ethyl]piperidine-4-carboxamide] | 85.9878
10 | CC(Cl)C(=O)NC(c1cc(Cl)ccc1Cl)C1CCOC1 (centres unmarked) [7-K21, 2-chloro-N-[(2,5-dichlorophenyl)(oxolan-3-yl)methyl]propanamide] | 91.9937
11 | CC(Cl)C(=O)NC1CCN(c2ccccc2C(F)(F)F)C1 (centres unmarked) [7-C17, 2-chloro-N-{1-[2-(trifluoromethyl)phenyl]pyrrolidin-3-yl}propanamide] | 102.983
12 | CC(=O)N(Cc1ncc(C(C)C)o1)C1CCN(C(=O)C(C)Cl)C1 (centres unmarked) [6-J07, N-[1-(2-chloropropanoyl)pyrrolidin-3-yl]-N-{[5-(propan-2-yl)-1,3-oxazol-2-yl]methyl}acetamide] | 96.6341
13 | COc1ccc(C2=NN(C(=O)CCl)C(c3cccc(C)c3)C2)cc1 (centres unmarked) [4-G20, 2-chloro-1-[3-(4-methoxyphenyl)-5-(3-methylphenyl)-4,5-dihydro-1H-pyrazol-1-yl]ethan-1-one] | 10.2906
14 | CC(Cl)C(=O)Nc1ccc(F)c(F)c1 (centres unmarked) [6-P08, 2-chloro-N-(3,4-difluorophenyl)propanamide] | 101.415
15 | CCN(Cc1ccc2c(c1)OCO2)C(=O)CCl [5-L07, N-[(1,3-dioxaindan-5-yl)methyl]-2-chloro-N-ethylacetamide] | 105.282
16 | C=CC(=O)NC(C)(C)c1noc(CCC)n1 [1-N10, N-[2-(5-propyl-1,2,4-oxadiazol-3-yl)propan-2-yl]prop-2-enamide] | 115.341
17 | CC(Cl)C(=O)NC1CCCN(c2cnn(C)c2)C1 (centres unmarked) [7-K19, 2-chloro-N-[1-(1-methyl-1H-pyrazol-4-yl)piperidin-3-yl]propanamide] | 94.5055
18 | O=C(CCl)Nc1nc2ccc([N+](=O)[O-])cc2s1 [4-H08, 2-chloro-N-(6-nitro-1,3-benzothiazol-2-yl)acetamide] | 90.3287
19 | N#CC(=Cc1c(F)cccc1F)C(=O)NCCc1ccccc1 [8-D18, 2-cyano-3-(2,6-difluorophenyl)-N-(2-phenylethyl)prop-2-enamide] | 118.174
20 | Cc1ccc(NC(=O)C(C#N)=Cc2cccc(Cl)c2Cl)cc1 [8-D06, 2-cyano-3-(2,3-dichlorophenyl)-N-(4-methylphenyl)prop-2-enamide] | 98.2573
21 | O=C(CCl)NCc1ccn(Cc2ccccc2)n1 [7-H10, N-[(1-benzyl-1H-pyrazol-3-yl)methyl]-2-chloroacetamide] | 122.135
22 | Cc1ccsc1-c1nnc(NC(=O)CCl)o1 [6-K03, 2-chloro-N-[5-(3-methylthiophen-2-yl)-1,3,4-oxadiazol-2-yl]acetamide] | 103.805
23 | C=CC(=O)N1CCCN(S(N)(=O)=O)CC1 [3-K10, 4-(prop-2-enoyl)-1,4-diazepane-1-sulfonamide] | 97.8668
24 | CC(Cl)C(=O)N1CCCC1c1cccc(N(C)C)c1 (centres unmarked) [7-A22, 2-chloro-1-{2-[3-(dimethylamino)phenyl]pyrrolidin-1-yl}propan-1-one] | 90.7378
25 | CC(Cl)C(=O)N(C)Cc1ncc(C2CC2)o1 (centres unmarked) [5-B22, 2-chloro-N-[(5-cyclopropyl-1,3-oxazol-2-yl)methyl]-N-methylpropanamide] | 96.9035
26 | COc1cccc(NC(=O)C(C#N)=Cc2c[nH]c(-c3ccccc3)n2)c1 [9-C20, 2-cyano-N-(3-methoxyphenyl)-3-(2-phenyl-1H-imidazol-4-yl)prop-2-enamide] | 78.8015
27 | N#CC(=Cc1ccc(-c2cccc([N+](=O)[O-])c2)s1)C(=O)NC1CC1 [9-G18, 2-cyano-N-cyclopropyl-3-[5-(3-nitrophenyl)thiophen-2-yl]prop-2-enamide] | 106.367
28 | C=CC(=O)N(C)c1ccc(C#N)c(Cl)c1 [3-G05, N-(3-chloro-4-cyanophenyl)-N-methylprop-2-enamide] | 92.2943
29 | CC1=CSC(=C(C#N)C(=O)NCc2ccco2)N1c1ccccc1 [8-D13, 2-cyano-N-[(furan-2-yl)methyl]-2-(4-methyl-3-phenyl-2,3-dihydro-1,3-thiazol-2-ylidene)acetamide] | 108.216
